Experimental data: PubChem BioAssay (Tox21)
Where “and” joins values, the source holds several entries; their conditions need not be identical. Identical values can stand only once. Calls of active or inactive are those of the source. Unless noted, calls come from the whole dose curve; as a rule, active = well fitted curve in the direction sought with a large enough effect in the repeat runs; inconclusive = weak or mixed curves; inactive = no such curve, though single readings can be large; an effect the other way counts as inactive or inconclusive.

Assays:
[1] = qHTS assay to identify small molecule antagonists of the glucocorticoid receptor (GR) signaling pathway - cell viability counter screen (AID 720693); settings: GR-bla HeLa viability, CellTiter-Glo luminescence, 18 h, with 5 nM dexamethasone present; viability change, negative = cytotoxic: at 58.5 µM (top of the series) unless noted; note: nearly all actives have a fitted effect of over 55% in size; for viability change, negative = cytotoxic: % is set by controls: 0 for no effect and ±100 for the full control effect
[2] = qHTS assay for identifying genotoxic compounds that show differential cytotoxicity against isogenic chicken DT40 cell lines with known DNA damage response pathways - wild type cell line (AID 743012); settings: DT40 wild type chicken cells viability, CellTiter-Glo, 40 h; activity change, negative = cytotoxicity: at 68.4 µM (top of the series) unless noted; note: nearly all actives have a fitted effect of over 60% in size
In short: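 Parental DNA repair-proficient DT40 cells, 300 per well, were pre-incubated ~0.5 h at 37 C/5% CO2, pin-dosed with compounds in DMSO, then incubated 40 h. Viability was read as CellTiter-Glo luminescence after 30 min at room temperature.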

[3] = qHTS assay for identifying genotoxic compounds that show differential cytotoxicity against isogenic chicken DT40 cell lines with known DNA damage response pathways - Rad54/Ku70 mutant cell line (AID 743015); settings: DT40 Rad54/Ku70 mutant viability, CellTiter-Glo, 40 h; activity change, negative = cytotoxicity: at 66.8 µM (top of the series); note: nearly all actives have a fitted effect of over 60% in size
[4] = qHTS assay to identify small molecule antagonists of the androgen receptor (AR) signaling pathway - cell viability counter screen (AID 743033; note: nearly all actives have a fitted effect of over 45% in size); settings: AR-bla HEK293 viability, CellTiter-Glo luminescence, 16 h; activity change, negative = cytotoxicity: at 58.5 µM (top of the series) unless noted
[5] = qHTS assay to identify small molecule antagonists of the thyroid receptor (TR) signaling pathway - cell viability counter screen (AID 743064); settings: GH3.TRE-Luc viability, CellTiter-Fluor, 24 h; activity change, negative = cytotoxic: at 70.3 µM (top of the series) unless noted; note: nearly all actives have a fitted effect of over 50% in size
In short: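 GH3.TRE-Luc cells, 4 h pre-plating; cpd + T3 1 nM final; 37 °C 23.5 h; CellTiter-Fluor 30 min; fluorescence read.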

[6] = qHTS assay to identify small molecule antagonists of the thyroid receptor (TR) signaling pathway (AID 743065); note: nearly all actives have a fitted effect of over 55% in size
In short: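 GH3.TRE-Luc rat pituitary cells (two TREs driving luciferase) were dosed with compound, then stimulated with 1 nM T3 (final) for 23.5 h at 37 C. ONE-Glo luminescence was the read-out, with CellTiter-Fluor fluorescence as the cytotoxicity counter-screen.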

[7] = qHTS assay to identify small molecule antagonists of the estrogen receptor alpha (ER-alpha) signaling pathway - cell viability counter screen (AID 743074; calls by dose curve;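 note: HEK293 cells carrying ER-alpha-UAS-bla reporter stimulated with 17beta-estradiol; nearly all actives have a fitted effect of over 45% in size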)
[8] = qHTS assay to identify small molecule antagonists of the estrogen receptor alpha (ER-alpha) signaling pathway using the BG1 cell line (AID 743080; calls by dose curve;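 note: BG1 cells stimulated with 17beta-estradiol alongside compound; nearly all actives have a fitted effect of over 25% in size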); settings: BG1Luc4E2 ERE-luciferase antagonist mode, luminescence; activity change, negative = inhibition: at 70.3 µM (top of the series) unless noted
In short: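 Quantitative HTS on the Tox21 10K library: BG1 cells with endogenous ER-alpha and ERE-luciferase reporter, 17beta-estradiol stimulation, 21.5 h compound exposure, luminescence endpoint with parallel fluorescence cytotoxicity counter-read.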

[9] = biological target: Aromatase (Homo sapiens) (UniProt P11511); experiment: qHTS assay to identify aromatase inhibitors (AID 743083); settings: MCF-7 aro ERE, testosterone-driven ERE luciferase, 24 h; activity, negative = inhibition: at 70.3 µM (top of the series); note: nearly all actives have a fitted effect of over 55% in size
Sequence of UniProt P11511 (P11511 whole entry, looked up): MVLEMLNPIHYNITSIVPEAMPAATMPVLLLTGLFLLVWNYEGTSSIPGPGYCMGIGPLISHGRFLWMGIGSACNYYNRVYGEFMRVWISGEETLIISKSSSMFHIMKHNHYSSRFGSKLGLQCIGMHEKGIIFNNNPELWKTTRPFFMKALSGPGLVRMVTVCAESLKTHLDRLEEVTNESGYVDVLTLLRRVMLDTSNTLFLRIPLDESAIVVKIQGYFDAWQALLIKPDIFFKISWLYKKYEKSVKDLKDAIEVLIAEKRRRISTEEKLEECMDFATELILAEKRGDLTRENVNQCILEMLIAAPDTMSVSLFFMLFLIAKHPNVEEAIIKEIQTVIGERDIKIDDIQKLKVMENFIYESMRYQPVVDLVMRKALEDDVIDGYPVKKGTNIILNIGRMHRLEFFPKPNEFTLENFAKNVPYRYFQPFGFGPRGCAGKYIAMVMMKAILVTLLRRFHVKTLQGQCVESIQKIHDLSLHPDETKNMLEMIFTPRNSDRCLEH

[10] = qHTS assay for identifying genotoxic compounds that show differential cytotoxicity against isogenic chicken DT40 cell lines with known DNA damage response pathways - Rev3 mutant cell line (AID 743014); settings: chicken DT40 Rev3-/- viability, CellTiter-Glo, 40 h; activity, negative = cytotoxicity: at 68.4 µM (top of the series); note: nearly all actives have a fitted effect of over 55% in size
[11] = qHTS assay to identify small molecule antagonists of the estrogen receptor alpha (ER-alpha) signaling pathway using the BG1 cell line - cell viability counter screen (AID 743081); settings: BG1Luc4E2 viability, CellTiter-Fluor, 22 h; activity change, negative = cytotoxicity: at 70.3 µM (top of the series) unless noted;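 note: compound given together with 17beta-estradiol as the ER stimulus; nearly all actives have a fitted effect of over 45% in size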
[12] = biological target: Androgen receptor (Homo sapiens) (UniProt P10275); experiment: qHTS assay to identify small molecule antagonists of the androgen receptor (AR) signaling pathway (AID 743035; active = well fitted inhibition curve with a large enough effect in the signal ratio in the repeat runs, not every such curve was filed as active; inconclusive = weak or mixed curves, or effect the other way; inactive = no such curve, though single readings can be large or run the other way; the % refers to the signal ratio); settings: HEK293 AR-UAS-bla, R1881-stimulated, beta-lactamase FRET, 16 h; activity change, negative = inhibition: at 58.5 µM (top of the series) unless noted
Sequence of UniProt P10275 (P10275 whole entry, looked up): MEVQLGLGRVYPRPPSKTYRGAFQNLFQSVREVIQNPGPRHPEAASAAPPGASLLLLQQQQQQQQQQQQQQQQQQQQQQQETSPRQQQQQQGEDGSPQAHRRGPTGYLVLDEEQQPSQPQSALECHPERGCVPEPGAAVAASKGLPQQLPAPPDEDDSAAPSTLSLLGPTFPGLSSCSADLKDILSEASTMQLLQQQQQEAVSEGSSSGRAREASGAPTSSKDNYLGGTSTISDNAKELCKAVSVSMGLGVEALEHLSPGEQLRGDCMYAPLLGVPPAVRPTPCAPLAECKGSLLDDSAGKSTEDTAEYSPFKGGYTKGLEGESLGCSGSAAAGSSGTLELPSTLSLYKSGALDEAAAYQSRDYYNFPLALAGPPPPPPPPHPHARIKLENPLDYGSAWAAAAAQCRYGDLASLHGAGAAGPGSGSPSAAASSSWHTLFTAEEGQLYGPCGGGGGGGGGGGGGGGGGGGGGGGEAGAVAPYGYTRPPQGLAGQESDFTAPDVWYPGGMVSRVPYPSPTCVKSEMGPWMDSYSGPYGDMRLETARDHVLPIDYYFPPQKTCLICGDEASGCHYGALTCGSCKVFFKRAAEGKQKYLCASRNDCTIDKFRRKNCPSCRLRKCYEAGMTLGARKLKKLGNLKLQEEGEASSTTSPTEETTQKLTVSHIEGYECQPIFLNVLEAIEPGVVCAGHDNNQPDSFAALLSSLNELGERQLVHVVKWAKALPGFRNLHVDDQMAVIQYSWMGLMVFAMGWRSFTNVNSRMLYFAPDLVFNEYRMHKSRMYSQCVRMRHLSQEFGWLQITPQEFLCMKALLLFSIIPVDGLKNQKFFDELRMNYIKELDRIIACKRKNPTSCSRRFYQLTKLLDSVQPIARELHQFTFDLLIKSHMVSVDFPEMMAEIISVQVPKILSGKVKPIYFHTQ
In short: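 HEK293 cells stably carrying a UAS-driven beta-lactamase reporter (AR-UAS-bla GripTite) were plated for 4 h at 37C, then given compound and the agonist R1881 and incubated 16 h. Reporter activity was read by LiveBLAzer B/G FRET fluorescence after 2 h at room temperature.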

[13] = biological target: Androgen receptor (Homo sapiens) (UniProt P10275); experiment: qHTS assay to identify small molecule agonists of the androgen receptor (AR) signaling pathway (AID 743036; active = well fitted activation curve with a large enough effect in the signal ratio in the repeat runs, with a control signal flat, not every such curve was filed as active; inconclusive = weak or mixed curves, or effect the other way; inactive = no such curve, though single readings can be large or run the other way; the % refers to the signal ratio); settings: HEK293 AR-UAS-bla GripTite, beta-lactamase FRET ratio, 16 h; activation: at 62.4 µM (top of the series) unless noted
In short: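 AR-bla HEK293 cells, 2,000/well; 4 h preincubation 37C/5% CO2; compound (DMSO) 16 h at 37C; LiveBLAzer B/G FRET substrate 2 h RT; fluorescence intensity read-out.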

[14] = biological target: Androgen receptor (Homo sapiens) (UniProt P10275); experiment: qHTS assay to identify small molecule antagonists of the androgen receptor (AR) signaling pathway using the MDA cell line (AID 743042; note: nearly all actives have a fitted effect of over 55% in size)
In short: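 MDA-kb2 breast carcinoma cells carrying MMTV-luciferase (AR/GR responsive) were co-treated with compounds and the agonist R1881 for 16 h at 37C. Inhibition read as ONE-Glo luminescence; CellTiter-Fluor fluorescence measured in parallel for cytotoxicity.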

[15] = tested on: thyroid hormone receptor (rat, GH3 cells); experiment: qHTS assay to identify small molecule agonists of the thyroid receptor (TR) signaling pathway (AID 743066; calls by dose curve; for activation: % is set by controls: 0 for no effect and ±100 for the full control effect); settings: GH3.TRE-Luc cells, TR agonist luciferase, 24 h; activation: at 83.9 µM (top of the series) unless noted
[16] = biological target: Estrogen receptor (Homo sapiens) (UniProt P03372); experiment: qHTS assay to identify small molecule antagonists of the estrogen receptor alpha (ER-alpha) signaling pathway (AID 743069; active = well fitted curve in the direction sought with a large enough effect in the signal ratio in the repeat runs, not every such curve was filed as active; inconclusive = weak or mixed curves, or effect the other way; inactive = no such curve, though single readings can be large or run the other way; the % refers to the signal ratio); settings: HEK293 ER-alpha-UAS-bla, beta-lactamase ratio, antagonist mode; activity, negative = inhibition: at 69.4 µM (top of the series) unless noted
Sequence of UniProt P03372 (P03372 whole entry, looked up): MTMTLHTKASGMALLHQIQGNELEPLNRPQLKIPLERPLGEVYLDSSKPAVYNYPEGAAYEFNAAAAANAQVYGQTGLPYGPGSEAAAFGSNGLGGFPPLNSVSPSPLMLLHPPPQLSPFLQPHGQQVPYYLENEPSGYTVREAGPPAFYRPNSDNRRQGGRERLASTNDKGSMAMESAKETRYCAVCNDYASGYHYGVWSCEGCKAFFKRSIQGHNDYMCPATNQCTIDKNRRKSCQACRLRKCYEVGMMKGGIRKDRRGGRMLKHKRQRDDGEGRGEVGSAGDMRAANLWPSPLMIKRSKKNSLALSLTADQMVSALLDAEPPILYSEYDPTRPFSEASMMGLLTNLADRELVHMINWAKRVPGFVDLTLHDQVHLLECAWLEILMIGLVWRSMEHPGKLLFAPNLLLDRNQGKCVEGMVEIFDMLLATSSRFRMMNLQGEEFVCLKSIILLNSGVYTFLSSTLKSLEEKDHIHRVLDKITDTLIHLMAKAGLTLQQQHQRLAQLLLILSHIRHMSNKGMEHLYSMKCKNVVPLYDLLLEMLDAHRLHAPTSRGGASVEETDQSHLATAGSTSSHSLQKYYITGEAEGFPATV
In short: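 Reporter cells (ER-alpha-bla, HEK293 background) are conditioned overnight in stripped-serum medium (2% charcoal-stripped FBS). Compound and 17beta-estradiol exposure runs 18 hr at 37C, 5% CO2.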

[17] = biological target: Estrogen receptor (Homo sapiens) (UniProt P03372); experiment: qHTS assay to identify small molecule agonists of the estrogen receptor alpha (ER-alpha) signaling pathway using the BG1 cell line (AID 743079); settings: BG1Luc4E2 cells, ERE-luciferase agonist, 22 h; activation: at 70.3 µM (top of the series) unless noted; note: nearly all actives have a fitted effect of over 20% in size
[18] = qHTS assay to identify small molecule antagonists of the androgen receptor (AR) signaling pathway using the MDA cell line - cell viability counter screen (AID 743041; note: nearly all actives have a fitted effect of over 45% in size); settings: MDA-kb2 viability, CellTiter-Fluor, 16 h, cells co-treated with R1881 androgen agonist; viability change, negative = cytotoxic: at 70.3 µM (top of the series) unless noted
In short: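 Same-well cytotoxicity was assessed by CellTiter-Fluor in MDA-kb2 AR-luc cells after 16 h of compound treatment under R1881 agonism.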

[19] = biological target: Estrogen receptor (Homo sapiens) (UniProt P03372); experiment: qHTS assay to identify small molecule agonists of the estrogen receptor alpha (ER-alpha) signaling pathway (AID 743075; calls by dose curve)
Potency is the fitted concentration of half-maximal effect; tags give direction and shape of the fitted curve or compound fluorescence and quenching.

CC(C)c1ccc(O)c(C(C)C)c1
inconclusive: Potency [5] 68.6 µM [cytotoxic, single point] | Potency [6] 68.6 µM [inhibitor, single point] | Potency [7] 61.6 µM [cytotoxic, single point] | Potency [9] 68.6 µM [inhibitor, single point]
active: Potency [2] 54.5 µM | Potency [3] 48.6 µM | Potency [4] 49 µM | Potency [8] 54.5 µM
inactive: Potency [1]

Oc1ccccc1O
inconclusive: Potency [1] 22.1 µM [cytotoxic, partial curve] and 54.9 µM [cytotoxic, single point] | Potency [7] 44.2 µM [rising, partial curve, poor fit] and 43.6 µM [rising, partial curve, poor fit] | Potency [11] 69.4 µM [cytotoxic, single point] | Potency [9] 61.1 µM [inhibitor]
active: Potency [2] 24.6 µM and 30.6 µM | Potency [10] 19.6 µM and 54.5 µM

CN1CCN2c3ccccc3Cc3ccccc3C2C1 (configuration not stated)
active: Potency [2] 13.3 µM | Potency [7] 23.9 µM | Potency [11] 26.6 µM
inconclusive: Potency [1] 26.8 µM [cytotoxic, single point] | Potency [12] 26.8 µM [rising, single point] | Potency [13] 26.8 µM [cytotoxic] | Potency [14] 33.5 µM [inhibitor, single point] | activation [15] -8.93% [phenotype inactive] | Potency [16] 26.8 µM [cytotoxic] | Potency [17] 29.8 µM [inhibitor] | Potency [8] 33.5 µM [falling, single point]

CC(NCCC(c1ccccc1)c1ccccc1)c1ccccc1 (configuration not stated)
inconclusive: Potency [1] 26.8 µM [cytotoxic, single point] | Potency [13] 26.8 µM [falling, partial curve, poor fit] | Potency [16] 23.9 µM [rising, partial curve, poor fit] | Potency [19] 26.8 µM [falling, single point] | Potency [17] 33.5 µM [inhibitor, single point] | Potency [8] 33.5 µM [falling, single point] | Potency [11] 33.5 µM [cytotoxic, single point]
active: Potency [2] 2.98 µM | Potency [12] 21.3 µM | Potency [18] 23.7 µM | Potency [14] 23.7 µM | Potency [5] 9.44 µM | Potency [7] 23.9 µM

COc1cc(C(=O)NC2CCN(C)CC2)ccc1Nc1ncc2c(n1)N(C1CCCC1)CC(F)(F)C(=O)N2C
inconclusive: Potency [13] 4.49 µM [activator, full curve] | Potency [14] 3.53 µM [inhibitor, full curve] | Potency [5] 1.99 µM [cytotoxic, full curve, poor fit] | Potency [15] 0.888 µM [inhibitor, partial curve, poor fit] | Potency [17] 0.628 µM [inhibitor, full curve] | Potency [11] 3.97 µM [cytotoxic, full curve] | Potency [9] 12.5 µM [inhibitor]
active: Potency [1] 22.5 µM | Potency [2] 0.0044 µM | Potency [3] 0.0056 µM | Potency [4] 15.9 µM | Potency [12] 0.0032 µM | Potency [18] 62.8 µM | Potency [16] 1.59 µM [inconclusive] | Potency [7] 40 µM | Potency [8] 0.25 µM

CC(C)=CCC[C@@](C)(O)[C@H]1CC=C(C)CC1
inactive: Potency [1]

Cc1ccc(O)c(O)c1
inconclusive: Potency [16] 9.5 µM [activator, full curve] | Potency [11] 59.4 µM [cytotoxic, partial curve, poor fit]
active: Potency [1] 53.4 µM | Potency [2] 16.7 µM | Potency [10] 13.3 µM | Potency [19] 53.4 µM [inconclusive]
